Source: the supplement of paper PMC11417369
Some of the results follow.

Test system: PfAP2-HC AP2 domain (GST-tagged)
Test: gcPBM binding intensity (ln(normalized median fluorescence intensity)); higher = stronger DNA binding
Method in brief: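 GST-fused DNA-binding domains of P. falciparum, expressed in E. coli, were applied at about 25 μg on average for 1 h to an Agilent 4 × 180k array of primer-extended double-stranded 36-bp intergenic genomic probes and negative controls. Binding intensity is the highest Masliner-normalised natural-log median intensity across replicate spots of either probe orientation, measured with Alexa488 anti-GST antibody and a 488 nm scan.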

| Sequence | gcPBM binding intensity (ln) |
| --- | --- |
| CTTAAAAAAATATATTGTACATATATATATACAACT [XGTACX_site1281] | 9.48 |
| TATATTCCCATATAACGTACATATGAGACACCAACT [XGTACX_site8099] | 9.53 |
| TTAAAATGATTGTTACTTTTTTTTCCGTTTTCTTAA [CACACA_negctrl_site1195] | 9.49 |
| ATAAATAGTATTATATGTACACATAATATTTATAAA [XGTACX_site4751] | 9.82 |
| AAAAATGGTGTTAACACACACATATATATATATATA [CACACA_site571] | 10.2 |
| TTTCTCTCTTATAAAATACACACGAACAATCATATT [CACACA_site509] | 9.73 |
| CACATTTTTTAAATATTTTTCTACTCCATAATGTTT [CACACA_negctrl_site557] | 9.75 |
| TATAATTATGATGATAGTACGTATGAGTTCAAAACA [XGTACX_site4211] | 9.68 |
| TTAATATAGGGAAAAAAAAGAAAATCGAAAATGTGT [CACACA_negctrl_site834] | 9.57 |
| ATAGTTACACGCCAAAAAAAAAAAAAAAAAAAAAAA [CACACA_negctrl_site1133] | 9.04 |
| TAACTTCAAAAATCTTGTACATAAATATATAAAACA [XGTACX_site8574] | 9.41 |
| AATTTTGTCCTATGTTGTACTATTTTGCTCTATTTT [XGTACX_site7139] | 10 |
| TTTTTTTTTTAGAGTACACACTTTTTTACATTTATG [CACACA_site5990] | 9.7 |
| TCTTGATCTTATATATATCTACAATATTTTATACAT [TGCATGCA_negctrl_site569] | 10.2 |
| ATTACAAATATAATATGTACTTAAATATAATTAAAA [XGTACX_site7038] | 9.52 |
| ATTACTAAAACAAAATGTACATATGATTTAAGAAAA [XGTACX_site5992] | 9.66 |
| CAAAAAAAATTATACACACACACACCCATATATATA [CACACA_site1044] | 10.6 |
| AAGAAAATTAACCCATGTACTTATGTAGATAGCAAG [XGTACX_site1049] | 9.87 |
| TACTATATATTATATAGTACATAAGATATACAACAT [XGTACX_site2929] | 9.69 |
| TAAAACTTAATATAAACACACAAAAATTAATAAATA [CACACA_site4370] | 9.87 |
| CAATATTATAGATATACACACATAATGTGTAAAAAC [CACACA_site6631] | 9.96 |
| ATATATATATATATTGCACACATATAAATATATATA [CACACA_site8167] | 9.69 |
| GAAAAATTTAATTATTGTACGTTTCATCTATATTTA [XGTACX_site414] | 9.7 |
| TTTTTGTTTTTTTTGTGTACTTATCAAATATATATA [XGTACX_site7273] | 9.82 |
